The values below come from the supplement of paper PMC9588766.

Structures can show the parent of a compound that is named as a salt. ± gives the standard deviation of the averaged measurements. Over roughly 2,000 compounds, “cell viability relative to DMSO control (compound alone)” has its median near 0.98; the lowest 2% begin near 0.23. The list shows a part of the results.

For this assay, the system named is PDC-DUC18828. The assay is described as follows: cell viability relative to DMSO control (compound alone) (fraction); PDC-DUC18828 is a patient-derived cholangiocarcinoma cell line; higher = less growth inhibition. The note with it: 1 µM; 72 h. The protocol: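 Selleck Bioactive library screen in the patient-derived FGFR2-G3BP2 fusion-positive ICC cell line PDC-DUC18828 (500 cells/well). Each compound was tested at 1 uM alone, in triplicate, for 72 h. Viability was read by CellTiter-Glo and normalised to plate DMSO controls.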
Compound `CCCc1cc2c(N3CCN(C4=NCC(C)(C)S4)CC3)ncnc2s1` [MI-2 (Menin-MLL Inhibitor)] registered a cell viability of 0.905 ± 0.029.

`CNCc1ccc(C)c(NC(=O)c2ccc(Nc3nc(-c4ccccc4)c4ccccc4n3)cc2)c1` showed a cell viability of 0.891 ± 0.043. The compound `COc1cc(CCc2cc(NC(=O)c3ccc(N4CC(C)NC(C)C4)cc3)n[nH]2)cc(OC)c1` (configuration not stated) registered a cell viability of 0.798 ± 0.037. The same measure for `Nc1ccc(C(=O)O)c(O)c1` [Sodium 4-Aminosalicylate]: 0.991 ± 0.068; for `O=C(O)c1ccccc1Nc1cccc(C(F)(F)F)c1` [Flufenamic acid]: 1.003 ± 0.0069; for `Cc1cccc(C)c1OCC(=O)N[C@@H](Cc1ccccc1)[C@@H](O)C[C@H](Cc1ccccc1)NC(=O)[C@H](C(C)C)N1CCCNC1=O` [Lopinavir]: 1.05 ± 0.012. `Clc1ccc(C(c2ccccc2Cl)C(Cl)Cl)cc1` (configuration not stated) [Mitotane]: the cell viability was 0.972 ± 0.044. Turning to `O=C1O[C@H]([C@@H](O)CO)C(O)=C1O` [Vitamin C], the cell viability worked out at 0.95 ± 0.025. The same measure for `N#CC[C@H](C1CCCC1)n1cc(-c2ncnc3[nH]ccc23)cn1`: 0.953 ± 0.024; for `CN(C[C@@H]1COCCO1)S(=O)(=O)Nc1ccc2ccc3ncc(-c4cnn(C)c4)cc3c(=O)c2c1`: 0.752 ± 0.024. Under `CCCc1nn(C)c2c(=O)[nH]c(-c3cc(S(=O)(=O)N4CCN(C)CC4)ccc3OCC)nc12` [Sildenafil Citrate] stands 1.05 ± 0.014; under `CCC(C)(C)C(=O)O[C@H]1C[C@@H](C)C=C2C=C[C@H](C)[C@H](CC[C@@H]3C[C@@H](O)CC(=O)O3)[C@H]21` [Simvastatin], 0.798 ± 0.065; under `O=C(CSc1nc2c(c(=O)n1-c1ccccc1)SCC2)Nc1ccc(-c2ccccc2)cn1`, 1.04 ± 0.027. Under `CC(=O)Oc1ccc(C(c2ccc(OC(C)=O)cc2)c2ccccn2)cc1` [Bisacodyl] stands 1.05 ± 0.085; under `CCOC(=O)CC(=O)N1CCSC1COc1ccccc1OC` (configuration not stated) [Moguisteine], 0.994 ± 0.017. Regarding `CC(C)c1cnn2c(NCc3ccccc3)cc(NCCCCCCN)nc12`, the cell viability was determined as 0.985 ± 0.045. The same measure for `O=C(c1ccc(F)c(F)c1Nc1ccc(I)cc1F)N1CC(O)([C@@H]2CCCCN2)C1` [Cobimetinib (GDC-0973, RG7420)]: 0.687 ± 0.017; for `O=S(=O)(c1cccc2cnccc12)N1CCCNCC1` [Fasudil (HA-1077) HCl]: 1.064 ± 0.0079. Under `COc1cc2nc(N3CCCN(C)CC3)nc(NC3CCN(Cc4ccccc4)CC3)c2cc1OC` stands 1.006 ± 0.0086.

Regarding `Cc1c(C(=O)N2CCOc3ccc(-c4ccc(N)nc4)cc3C2)ccc(S(C)(=O)=O)c1F`, the cell viability came to 0.756 ± 0.069. The same measure for `C[C@H](Nc1ncnc2nc[nH]c12)c1cc2cccc(Cl)c2c(=O)n1-c1ccccc1`: 0.869 ± 0.019. The same measure for `CC(C)(O)CC(=O)NCCn1ccc2ncnc(Nc3ccc(Oc4cccc(C(F)(F)F)c4)c(Cl)c3)c21`: 1.02 ± 0.034.
